Measured values from PubChem BioAssay AID504339 (National Center for Advancing Translational Sciences (NCATS), 2011).
Hit rate of the full screen: of about 390,000 compounds, about 17,000 (4.4%) were called active. This list was built around the results that the source calls inconclusive (neither active nor inactive); the mix of calls is not that of the screen. The call rests on the fitted dose curve; in most records, active means well fitted inhibition curve with a large enough effect; inconclusive means small, poorly fitted or top-dose-only effect; inactive means no such curve, though single readings can be large or run the other way. Potencies beside an inconclusive call are fits to weak or partial responses and may not hold up.

The compounds below were run against Lysine-specific demethylase 4A (Homo sapiens) (UniProt O75164) (assay: qHTS Assay for Inhibitors of JMJD2A-Tudor Domain). Conditions: AlphaScreen JMJD2A-Tudor / H3K4me3 peptide binding; series mostly up to 114 µM.
Sequence of UniProt O75164 (O75164 whole entry, looked up, the tested form may be a part): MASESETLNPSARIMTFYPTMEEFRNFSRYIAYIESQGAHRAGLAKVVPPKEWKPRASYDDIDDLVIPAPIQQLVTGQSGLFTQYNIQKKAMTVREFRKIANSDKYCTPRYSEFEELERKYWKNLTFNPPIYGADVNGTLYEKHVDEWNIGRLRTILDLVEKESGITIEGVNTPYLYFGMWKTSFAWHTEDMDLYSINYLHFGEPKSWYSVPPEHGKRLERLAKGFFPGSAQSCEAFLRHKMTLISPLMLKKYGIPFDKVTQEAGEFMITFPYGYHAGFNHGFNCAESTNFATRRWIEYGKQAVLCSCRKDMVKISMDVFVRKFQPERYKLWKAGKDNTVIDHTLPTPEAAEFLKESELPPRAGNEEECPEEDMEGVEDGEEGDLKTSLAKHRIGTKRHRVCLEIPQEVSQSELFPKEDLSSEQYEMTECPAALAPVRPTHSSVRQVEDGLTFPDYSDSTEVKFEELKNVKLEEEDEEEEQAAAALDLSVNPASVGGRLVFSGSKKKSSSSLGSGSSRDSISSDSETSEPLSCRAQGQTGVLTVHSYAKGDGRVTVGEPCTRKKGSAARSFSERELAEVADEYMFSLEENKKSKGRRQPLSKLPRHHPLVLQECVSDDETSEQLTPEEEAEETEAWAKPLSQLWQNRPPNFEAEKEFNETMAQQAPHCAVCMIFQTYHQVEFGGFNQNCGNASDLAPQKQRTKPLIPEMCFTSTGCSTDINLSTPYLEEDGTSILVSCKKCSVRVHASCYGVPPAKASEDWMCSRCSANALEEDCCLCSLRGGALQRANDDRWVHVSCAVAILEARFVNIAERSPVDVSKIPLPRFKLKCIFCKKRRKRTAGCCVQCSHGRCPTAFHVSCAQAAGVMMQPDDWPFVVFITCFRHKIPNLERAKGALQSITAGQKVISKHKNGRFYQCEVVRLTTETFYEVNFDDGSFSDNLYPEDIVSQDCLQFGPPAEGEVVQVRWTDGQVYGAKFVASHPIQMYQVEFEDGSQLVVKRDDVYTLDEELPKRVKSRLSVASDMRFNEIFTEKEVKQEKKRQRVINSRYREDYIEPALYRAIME
Further: nearly all actives have a fitted effect of over 50% in size.
Potency means the concentration at half of the fitted maximal effect; tags describe the fitted curve by direction and shape.

Structure (SMILES)	Potency
COc1ccc(Nc2nc(N)c3ccccc3n2)c(OC)c1	inconclusive: 89.1 µM [inhibitor, partial curve]
CCN(CC)c1ccc(NC(=O)c2ccc(Cl)nc2)cc1	inconclusive: 56.2 µM [inhibitor, partial curve]
O=C(COC(=O)C1(c2ccccc2)CCCC1)N1CCNC1=O	inactive
CN(C)c1ccc(NC(=O)c2ccc([N+](=O)[O-])cc2Cl)cc1	inactive
COc1ccc(NC(=O)c2ccco2)cc1NC(=O)c1cc(Br)ccc1Cl	inactive
O=C(O)c1ccccc1CSc1nc2ccccc2s1	inconclusive: 28.2 µM [inhibitor, full curve]
COc1ccc(NC(=O)Cc2ccc(C)cc2)c([N+](=O)[O-])c1	inconclusive: 70.8 µM [inhibitor, single point]
Cc1ccc(N=N/C(=C\O)C(=O)c2ccncc2)cc1	inconclusive: 56.2 µM [inhibitor, partial curve]
O=C(Nc1ccc2ccccc2c1)c1ccc2[nH]c(=O)c(=O)[nH]c2c1	inconclusive: 63.1 µM [inhibitor, partial curve]
CN(Cc1ccco1)c1ncnc2ccc(-c3ccoc3)cc12	inconclusive: 79.4 µM [inhibitor, single point]
COc1ccc(Nc2nc(NCc3ccco3)nc(N/N=C/c3ccccc3Cl)n2)cc1	inconclusive: 39.8 µM [inhibitor, partial curve]
CC(=O)N(c1ccc2oc(=O)sc2c1)S(=O)(=O)c1cccs1	inconclusive: 15.8 µM [inhibitor, partial curve, poor fit]
O=Cc1cn[nH]c1-c1cccc([N+](=O)[O-])c1	inactive
Fc1cccc(F)c1/C=C/c1ccc2ccccc2n1	inactive
S=C(NCCc1ccccc1)NCC(c1ccco1)N1CCCCC1 (stereo not given)	inconclusive: 89.1 µM [inhibitor, single point]
Nc1ccccc1SCc1cc([N+](=O)[O-])cc2c1OCOC2	inconclusive: 56.2 µM [inhibitor, partial curve, poor fit]
Cc1ccc(/C=C/c2onc(C)c2S(=O)(=O)N2CCC(C(=O)N3CCN(c4cc(C)ccc4C)CC3)CC2)cc1	inactive
COc1cccc(NC2=Nc3cccc4cccc2c34)c1	active: 44.7 µM
CC(=O)N1CCc2c(sc3c2c(=O)n(Cc2ccccc2)c(=O)n3Cc2ccccc2Cl)C1	inconclusive: 15.8 µM [inhibitor, full curve]
Cc1nn(Cc2ccc(Cl)cc2)c(Cl)c1/C=N/NC(=O)c1cccnc1	inconclusive: 112 µM [inhibitor, partial curve, poor fit]
